{
  "source": "the antibiotic and cytotoxicity screens of Wong et al. (2023)",
  "note": "The list shows a part of the results.",
  "data": [
    {"system": "HepG2", "assay": "cytotoxicity call (relative viability < 0.9)", "details": "10 µM", "values": [
      {"smiles": "CNC(=O)C[C@@H]1CC[C@@H]2[C@H](COC[C@H](O)CN2C(=O)Nc2ccc3c(c2)OCO3)O1", "cytotoxicity call": "inactive"},
      {"smiles": "COCC#Cc1cnc2c(c1)C(=O)N([C@@H](C)CO)C[C@H](C)[C@@H](CN(C)C(=O)Nc1ccc(OC)cc1)O2", "cytotoxicity call": "inactive"},
      {"smiles": "CN(C)CC(=O)N[C@H]1CC[C@H](CC(=O)NCCN2CCCCC2)O[C@H]1CO", "cytotoxicity call": "inactive"},
      {"smiles": "Cn1cnc(S(=O)(=O)N[C@@H]2CC[C@@H](CC(=O)Nc3ccccc3)O[C@H]2CO)c1", "cytotoxicity call": "inactive"},
      {"smiles": "C[C@@H]1CN([C@@H](C)CO)C(=O)c2c(c3ccccc3n2C)-c2ccccc2CO[C@@H]1CN(C)Cc1ccccc1C(F)(F)F", "cytotoxicity call": "inactive"},
      {"smiles": "COc1ccccc1C#Cc1ccc2c(c1)O[C@H](CN(C)Cc1ccncc1)[C@H](C)CN([C@@H](C)CO)S2(=O)=O", "cytotoxicity call": "inactive"},
      {"smiles": "C[C@@H]1CN([C@H](C)CO)C(=O)c2cc(NC(=O)Nc3ccc4c(c3)OCO4)ccc2O[C@@H](C)CCCCO[C@H]1CN(C)Cc1ccc(C(F)(F)F)cc1", "cytotoxicity call": "active"},
      {"smiles": "COc1ccc(-c2cnc3c(c2)C(=O)N([C@@H](C)CO)C[C@@H](C)[C@H](CN(C)S(=O)(=O)c2ccc(OC)cc2)O3)cc1", "cytotoxicity call": "inactive"},
      {"smiles": "C[C@H]1CN([C@@H](C)CO)C(=O)c2cc(-c3ccc(C#N)cc3)cnc2O[C@H]1CN(C)C(=O)Nc1ccc(C(F)(F)F)cc1", "cytotoxicity call": "inactive"},
      {"smiles": "C[C@H](CO)N1C[C@H](C)[C@H](CN(C)S(C)(=O)=O)OCc2cn(nn2)CCCC1=O", "cytotoxicity call": "inactive"},
      {"smiles": "C[C@@H]1CN([C@H](C)CO)C(=O)c2cc(NS(=O)(=O)c3ccc(F)cc3)ccc2O[C@@H](C)CCCCO[C@@H]1CN(C)C(=O)NC1CCCCC1", "cytotoxicity call": "inactive"},
      {"smiles": "COc1ncccc1N", "cytotoxicity call": "inactive"},
      {"smiles": "C[C@H]1CN([C@@H](C)CO)C(=O)Cc2cc(NC(=O)Cc3cn(C)c4ccccc34)ccc2O[C@H]1CN(C)Cc1ccc(C(=O)Nc2ccccc2N)cc1", "cytotoxicity call": "inactive"},
      {"smiles": "C[C@H]1CN([C@@H](C)CO)C(=O)Cc2cc(NC(=O)Nc3cccc4ccccc34)ccc2O[C@@H]1CN(C)S(=O)(=O)c1ccc(Cl)cc1", "cytotoxicity call": "inactive"},
      {"smiles": "CC(C)(C)[S@@](=O)N1Cc2cc(C(=O)N[C@H]3CCN(Cc4ccccc4)C3)nc(-c3cccc(-c4cccnc4)c3)c2[C@H]1CCO", "cytotoxicity call": "inactive"},
      {"smiles": "C[C@@H]1CN([C@@H](C)CO)C(=O)c2cccc(NC(=O)Nc3ccc(F)cc3)c2O[C@H]1CN(C)C(=O)Nc1cccc2ccccc12", "cytotoxicity call": "inactive"},
      {"smiles": "COc1ccc(NC(=O)N(C)C[C@@H]2OCCCC[C@H](C)Oc3ccc(NC(=O)CCC(F)(F)F)cc3C(=O)N([C@@H](C)CO)C[C@@H]2C)cc1", "cytotoxicity call": "inactive"},
      {"smiles": "C[C@@H]1CN([C@H](C)CO)C(=O)c2cc(NC(=O)CCN3CCOCC3)ccc2O[C@H]1CN(C)S(C)(=O)=O", "cytotoxicity call": "inactive"},
      {"smiles": "C[C@H](CO)N1C[C@H](C)[C@@H](CN(C)C(=O)Cc2ccncc2)Oc2cc(-c3cncnc3)ccc2S1(=O)=O", "cytotoxicity call": "inactive"},
      {"smiles": "C[C@@H]1CN([C@@H](C)CO)C(=O)c2c(c3ccccc3n2C)-c2ccccc2CO[C@@H]1CN(C)C(=O)Nc1cccc(F)c1", "cytotoxicity call": "inactive"},
      {"smiles": "CO[C@@H](CN(C)C(=O)c1ccc2c(c1)OCO2)[C@@H](C)CN([C@H](C)CO)S(=O)(=O)c1ccc(Cl)cc1", "cytotoxicity call": "inactive"},
      {"smiles": "C[C@H]1CN([C@@H](C)CO)S(=O)(=O)c2ccc(-c3ccccc3F)cc2O[C@@H]1CN(C)S(C)(=O)=O", "cytotoxicity call": "inactive"},
      {"smiles": "COc1ccc(S(=O)(=O)Nc2ccc3c(c2)C(=O)N([C@@H](C)CO)C[C@@H](C)[C@@H](CN(C)S(=O)(=O)c2c(C)noc2C)O3)cc1", "cytotoxicity call": "inactive"},
      {"smiles": "C[C@@H]1CN([C@@H](C)CO)C(=O)c2cc(NC(=O)Cn3cnnn3)ccc2O[C@H]1CN(C)Cc1ccncc1", "cytotoxicity call": "inactive"},
      {"smiles": "O=C([C@H]1N[C@H]2c3ccc(-c4ccc(F)cc4)c(=O)n3C[C@H]2[C@@H]1CO)N1CCOCC1", "cytotoxicity call": "inactive"},
      {"smiles": "Cc1cc2nc3c(=O)[nH]c(=O)nc-3n(CC(O)C(O)C(O)CO)c2cc1C", "note": "(centres undefined)", "cytotoxicity call": "inactive"},
      {"smiles": "C[C@H](CO)N1C[C@H](C)[C@@H](CN(C)S(=O)(=O)c2cccs2)OCCCC[C@H](C)Oc2ccc(NC(=O)Nc3ccc4c(c3)OCO4)cc2C1=O", "cytotoxicity call": "inactive"},
      {"smiles": "Cc1noc(C)c1NC(=O)Nc1ccc2c(c1)C(=O)N([C@H](C)CO)C[C@H](C)[C@@H](CN(C)Cc1ccc3c(c1)OCO3)OCCCC[C@@H](C)O2", "cytotoxicity call": "inactive"},
      {"smiles": "COc1ccc(S(=O)(=O)N(C)C[C@H]2Oc3ccc(NS(=O)(=O)c4ccc(F)cc4)cc3CC(=O)N([C@@H](C)CO)C[C@@H]2C)cc1", "cytotoxicity call": "inactive"}
    ]}
  ]
}
